Test results: PubChem BioAssay AID504339 (National Center for Advancing Translational Sciences (NCATS), 2011)
Hit rate of the full screen: of about 390,000 compounds, about 17,000 (4.4%) were called active. This list was built around the results that the source calls inconclusive (neither active nor inactive); the mix of calls is not that of the screen. The call rests on the fitted dose curve; in most records, active means well fitted inhibition curve with a large enough effect; inconclusive means small, poorly fitted or top-dose-only effect; inactive means no such curve, though single readings can be large or run the other way. Potencies beside an inconclusive call are fits to weak or partial responses and may not hold up.

Biological target: Lysine-specific demethylase 4A (Homo sapiens) (UniProt O75164)
Test: qHTS Assay for Inhibitors of JMJD2A-Tudor Domain; further: nearly all actives have a fitted effect of over 50% in size
Settings: AlphaScreen JMJD2A-Tudor / H3K4me3 peptide binding; activity change, negative = inhibition: at 114 µM (top of the series)
On the % scale 0 is the no-effect control and ±100 the full control effect; potency means the concentration at half of the fitted maximal effect; tags describe the fitted curve by direction and shape.

Chain of UniProt O75164 (O75164 whole entry, looked up, the tested form may be a part): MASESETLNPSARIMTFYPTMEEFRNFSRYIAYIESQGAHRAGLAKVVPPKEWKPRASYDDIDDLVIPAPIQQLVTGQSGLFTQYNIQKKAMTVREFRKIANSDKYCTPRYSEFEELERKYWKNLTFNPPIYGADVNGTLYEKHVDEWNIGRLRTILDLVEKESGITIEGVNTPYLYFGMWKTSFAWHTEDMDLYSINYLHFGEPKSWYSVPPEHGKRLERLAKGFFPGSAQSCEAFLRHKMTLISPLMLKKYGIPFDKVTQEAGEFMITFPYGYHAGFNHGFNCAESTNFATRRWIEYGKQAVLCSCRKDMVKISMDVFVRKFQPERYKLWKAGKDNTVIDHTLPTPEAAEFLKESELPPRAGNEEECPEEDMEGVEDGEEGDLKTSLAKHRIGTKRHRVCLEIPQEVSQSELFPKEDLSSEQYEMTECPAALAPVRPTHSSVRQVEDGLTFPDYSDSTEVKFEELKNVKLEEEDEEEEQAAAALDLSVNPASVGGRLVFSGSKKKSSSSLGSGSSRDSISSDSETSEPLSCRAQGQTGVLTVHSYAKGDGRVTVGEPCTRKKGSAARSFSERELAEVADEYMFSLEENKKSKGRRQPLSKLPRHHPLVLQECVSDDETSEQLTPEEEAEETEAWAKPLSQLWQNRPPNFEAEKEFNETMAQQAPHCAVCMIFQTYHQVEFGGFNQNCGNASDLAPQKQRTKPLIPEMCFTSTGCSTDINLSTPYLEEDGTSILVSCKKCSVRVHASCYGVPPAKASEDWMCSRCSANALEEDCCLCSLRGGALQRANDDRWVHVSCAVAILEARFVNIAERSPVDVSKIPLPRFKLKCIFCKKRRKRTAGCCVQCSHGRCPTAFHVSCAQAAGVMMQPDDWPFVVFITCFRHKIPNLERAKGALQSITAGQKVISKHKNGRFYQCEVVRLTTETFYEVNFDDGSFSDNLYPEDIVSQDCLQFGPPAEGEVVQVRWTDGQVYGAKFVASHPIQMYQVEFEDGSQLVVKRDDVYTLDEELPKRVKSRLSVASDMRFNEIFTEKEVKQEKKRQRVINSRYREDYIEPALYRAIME

| SMILES | Potency | activity change, negative = inhibition |
| --- | --- | --- |
| C/C(CCc1ccco1)=N\NC(=O)CNc1cccc2ccccc12 | inconclusive: 79.4 µM [inhibitor, partial curve] |  |
| COCCn1c(=S)[nH]c2cc(C(=O)N3CCC(C(N)=O)(N4CCCCC4)CC3)ccc2c1=O | inconclusive: 39.8 µM [inhibitor, single point] |  |
| Cc1cc(OCC(=O)Nc2ccc(S(=O)(=O)N3CCN(C)CC3)cc2)ccc1Br | inconclusive: 56.2 µM [inhibitor, partial curve, poor fit] |  |
| Cc1ccccc1OCc1ccc(-c2nc(C#N)c(N3CCN(c4ccccc4)CC3)o2)o1 |  | inactive: -31.1% |
| C=CCN(CC=C)Cc1c(O)ccc2c1oc(=O)c1ccccc12 | active: 8.91 µM |  |
| COc1ccc(N(CC(=O)N2CCCCCC2)S(C)(=O)=O)cc1Cl |  | inactive: -14.1% |
| Cc1nc(SCC(=O)NCCc2ccccc2)c2oc3ccccc3c2n1 | inconclusive: 100 µM [inhibitor, partial curve] |  |
| O=C(C[C@H]1C[C@H](C(=O)N2CCOCC2)[C@@]2(CCC3CCCC3)c3[nH]c4cc(-c5ccco5)ccc4c3CCN2C1=O)NCCC1=CCCCC1 | inconclusive: 25.1 µM [inhibitor, full curve, poor fit] |  |
| O=C(O)c1ccc(S(=O)(=O)N[C@H](Cc2ccc([N+](=O)[O-])cc2)C(=O)O)cc1 | inconclusive: 79.4 µM [inhibitor, partial curve] |  |
| Cc1ccc2nsnc2c1NC(=S)NC(=O)c1ccco1 |  | inactive: -27.5% |
| Cc1c(CC(=O)O)c(=O)oc2c(C)c(OCc3ccccc3Br)ccc12 | inconclusive: 12.6 µM [inhibitor, full curve, poor fit] |  |
| O=Nc1c(O)n(Cc2cccc(Cl)c2)c2ccccc12 |  | inactive: -27.1% |
| Clc1ccc(-c2nc(/C=N/N3CCOCC3)c3ccccn23)cc1 | inconclusive: 56.2 µM [inhibitor, partial curve] |  |
| C=CCNc1nc(C(=O)OCC(=O)Nc2ccc(S(N)(=O)=O)cc2)cs1 | inconclusive: 14.1 µM [inhibitor, full curve] |  |
| O=c1cc[nH]c2c1ccc1c(=O)cc[nH]c12 | inconclusive: 3.55 µM [inhibitor, full curve, poor fit] |  |
| CCc1ccccc1Nc1ncnc2c1cnn2-c1ccc(Cl)cc1 |  | inactive: -15.3% |
| CCOC(=O)c1cnc2ccc(C(=O)OC)cc2c1Nc1ccc(N2CCOCC2)cc1 | active: 50.1 µM |  |
| CC(C)OC(=O)c1cccc(C(=O)Nc2cccc(NC(=O)c3cccc(C(=O)OC(C)C)n3)n2)n1 |  | inactive: -4.17% |
| CC(C)c1ccc(OCC(O)CN2CCN(c3ccccn3)CC2)cc1 (stereo not drawn) | inconclusive: 89.1 µM [inhibitor, partial curve] |  |
| COC(=O)c1ccc(C(=O)OC)c(NC(=O)COC(=O)C2CC2C)c1 (stereo not drawn) |  | inactive: -1.57% |
| C#CCOCCOCCOCCNc1nc(N2CCN(C(=O)[C@H]([C@@H](C)CC)n3cc([C@@H](N)CC(C)C)nn3)CC2)nc(N2CCN(C(=O)[C@H](Cc3ccc(O)cc3)n3cc([C@@H](N)C(C)CC)nn3)CC2)n1 (stereo partly drawn) | inconclusive: 28.2 µM [inhibitor, partial curve] |  |
| CC(C)OC(=O)c1ccccc1C(=O)c1ccc(N)c([N+](=O)[O-])c1 |  | inactive: -29.9% |

| SMILES | Potency | activity change, negative = inhibition |
| --- | --- | --- |
| CCOc1ccc(/C=N/Nc2ccccn2)cc1OC | inconclusive: 44.7 µM [inhibitor, full curve] |  |
| Cc1ccc(CNc2ccc(O)cc2)cc1 | active: 50.1 µM |  |
| O=C1COc2ccc(C(=O)COC(=O)c3ccc4ccccc4n3)cc2N1 | inconclusive: 79.4 µM [inhibitor, partial curve] |  |
| O=C(/C=C/c1cccnc1)c1cc(F)ccc1O |  | inactive: -4.42% |
| O=C(CSc1c(Cl)cccc1Cl)NC1CCCc2ccccc21 (stereo not drawn) |  | inactive: -23.5% |
| COc1ccccc1-n1c(-c2cccnc2)n[nH]c1=S | active: 4.47 µM |  |
| CC(=O)N1CCc2cc(S(=O)(=O)NC(CC(C)C)C(=O)NCCc3ccccc3)ccc21 (stereo not drawn) |  | inactive: 3% |
| Cc1n[nH]c(=S)n(NC(=O)/C=C/C(=O)Nn2c(=S)[nH]nc(C)c2=O)c1=O | active: 12.6 µM |  |
| CCCn1c(C(CO)Nc2nc(-c3cccc(Br)c3)cs2)nc2ccccc21 (stereo not drawn) | inconclusive: 25.1 µM [inhibitor, single point] |  |
| Cc1cc(NC(=O)CSc2nc3cc(Cl)ccc3c(=O)n2Cc2ccco2)no1 | inconclusive: 79.4 µM [inhibitor, partial curve] |  |
| Cc1cccc(C(=O)OCC(=O)NCC2COc3ccccc3O2)c1 (stereo not drawn) |  | inactive: 0% |
| O=C(NCC1CCCCC1)c1cccc(S(=O)(=O)N2CCCC2)c1 |  | inactive: -2.78% |
| CN1C(=O)/C(=C/c2ccc(-c3ccccc3[N+](=O)[O-])o2)SC1=Nc1ccc(Cl)c(C(=O)O)c1 | inconclusive: 56.2 µM [inhibitor, partial curve] |  |
| CC(=C\C(=O)O)/C(=C/c1ccc(C)o1)C(=O)O | inconclusive: 44.7 µM [inhibitor, partial curve] |  |
| CCOc1cccc(/C=N/NC(=O)c2cc(C3CC3)[nH]n2)c1O |  | inactive: -28.3% |
| Cc1ccc(C)c(NC(=S)N(C)CCc2ccccn2)c1 | inconclusive: 6.31 µM [inhibitor, single point] |  |
| Cc1cc(SCC(=O)N/N=C/c2ccc(O)cc2O)nc2ccccc12 | inconclusive: 44.7 µM [inhibitor, partial curve] |  |
| CCN1CCN(c2ccc(S(=O)(=O)N3CCCCC3)cc2NC(=O)/C=C/c2ccc(Cl)cc2)CC1 | inconclusive: 31.6 µM [inhibitor, full curve, poor fit] |  |
| C#CCOCCOCCOCCNc1nc(N2CCN(C(=O)CCCCCCCCCCNC(=O)Cn3cc(CCCCCN)nn3)CC2)nc(N2CCN(C(=O)CCCCCCCCCCNC(=O)[C@H](CO)n3cc(CCCCCN)nn3)CC2)n1 | inconclusive: 35.5 µM [inhibitor, single point] |  |
| CCC(C)NC(=O)N1c2ccccc2Sc2ccccc21 (stereo not drawn) | inconclusive: 79.4 µM [inhibitor, partial curve] |  |
| CCn1c(SCC(=O)c2cc(C)n(CC3CCCO3)c2C)nc2ccccc21 (stereo not drawn) | inconclusive: 56.2 µM [inhibitor, partial curve] |  |
